Data: PubChem BioAssay AID1745845 (National Center for Advancing Translational Sciences (NCATS), 2022)
Screen size: about 360,000 compounds; about 2,600 (0.72%) were called active. The inconclusive results got no clear call from the source; some entries with a clear call stand among them for comparison. Calls come from the whole dose curve; as a rule, active = well fitted inhibition curve with a large enough effect; inconclusive = small, poorly fitted or top-dose-only effect; inactive = no such curve, though single readings can be large or run the other way. Where the call is inconclusive, the potency comes from a doubtful curve fit.

test: Primary qHTS for Inhibitors of ATXN expression; settings: HEK-293 ATXN2-luciferase reporter, luminescence, 24 h; series mostly up to 57 µM; note: nearly all actives have a fitted effect of over 55% in size
In short: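 qHTS (up to 57 uM final) was run with 24 h compound exposure of reporter cells at 37 °C. Each well was multiplexed: SteadyGlo luminescence measured ATXN2-luciferase expression after a fluorogenic Gly-Phe-AFC viability readout (25 uM final).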
Potency is the fitted concentration of half-maximal effect; tags give direction and shape of the fitted curve.

Question: With `Cc1cccc(-n2ncc3c(NCc4ccco4)ncnc32)c1` as the compound, how does the Potency read?
Answer: inactive

Question: For `COC1=C(OC)C(=O)C(Sc2ccc3ccccc3c2)=CC1=O`, which Potency is on record?
Answer: inconclusive: 37.7 µM [inhibitor, single point]

Question: With `Cc1noc(NS(=O)(=O)c2ccc(N/C=C\C(=O)c3ccc4c(c3)OCO4)cc2)c1C` as the compound, how does the Potency read?
Answer: inactive

Question: For `COc1ccccc1Nc1nc(NCCO)nc(N)c1[N+](=O)[O-]`, which Potency is on record?
Answer: inconclusive: 0.708 µM [inhibitor, full curve, poor fit]

Question: With `COc1ccccc1CNC(=O)C1(C)CCN1C(=O)Cc1ccc(-c2ccccc2)cc1` (stereo not drawn) as the compound, how does the Potency read?
Answer: inconclusive: 22.4 µM [inhibitor, partial curve]

Question: For `Cn1c(=NC(=O)CCl)sc2ccccc21`, which Potency is on record?
Answer: inconclusive: 35.5 µM [inhibitor, single point]

Question: With `O=S(=O)(c1ccccc1)[C@@]1(c2ccc(Br)cc2)C[C@@H]2ON=C(c3cccc(Br)c3)[C@@H]2C1` as the compound, how does the Potency read?
Answer: inactive

Question: For `Cc1c(C)n(Cc2ccc(Cl)cc2)c2ccc(C(=O)NCCCN3CCOCC3)cc12`, which Potency is on record?
Answer: inconclusive: 35.5 µM [inhibitor, single point]

Question: With `CC(C)c1ccc(/C=N/NC(=O)c2ccccn2)cc1` as the compound, how does the Potency read?
Answer: active: 12.6 µM

Question: For `CCc1nc2c(OCCC3CCCCC3)cccn2c1N(C)C(=O)COc1ccccc1`, which Potency is on record?
Answer: inconclusive: 22.4 µM [inhibitor, partial curve]

Question: With `CCc1cccc(OCCn2nc(C(=O)O)c3ccccc3c2=O)c1` as the compound, how does the Potency read?
Answer: inconclusive: 10.6 µM [inhibitor, partial curve, poor fit]

Question: With `CN(c1ccc(C(=O)Nc2ccc(Cl)cn2)cc1)S(=O)(=O)c1ccccc1` as the compound, how does the Potency read?
Answer: inactive

Question: With `COc1cc2c(c(OC)c1)C(c1cccc(F)c1F)CC(=O)N2` (stereo not drawn) as the compound, how does the Potency read?
Answer: inactive

Question: With `Cc1ccc2c(n1)CC(C)(C)CC2=O` as the compound, how does the Potency read?
Answer: inconclusive: 31.6 µM [inhibitor, partial curve, poor fit]

Question: With `COc1ccc(-c2c(C)c3ccc(O)c(CN4CCC(C)CC4)c3oc2=O)cc1OC` as the compound, how does the Potency read?
Answer: inactive

Question: For `CCOC(=O)C1(Cc2ccccc2)CCN(Cc2cn(CC(=O)OC)c3ccccc23)CC1`, which Potency is on record?
Answer: inactive

Question: For `CCc1cccc(NC(=O)COC(=O)c2cc([N+](=O)[O-])ccc2N2CCOCC2)c1`, which Potency is on record?
Answer: inconclusive: 39.8 µM [inhibitor, partial curve, poor fit]

Question: Which Potency does the source give for `O=C(NCc1ccco1)C1CCN(C(=O)c2cc3sccc3n2Cc2ccc(Cl)cc2)CC1` here?
Answer: inconclusive: 39.8 µM [inhibitor, single point]

Question: Which Potency does the source give for `COc1ccc(C(Nc2ccccn2)c2ccc3ccc(C)nc3c2O)cc1C` (stereo not drawn) here?
Answer: inconclusive: 39.8 µM [inhibitor, single point]

Question: With `O=C(Nc1ccc2c(c1)CCCN2C(=O)c1ccco1)c1cc([N+](=O)[O-])ccc1Cl` as the compound, how does the Potency read?
Answer: inactive

Question: Which Potency does the source give for `O=C(N/N=C/C=C/c1ccc2c(c1)OCO2)c1ccc([N+](=O)[O-])cc1` here?
Answer: inconclusive: 28.2 µM [inhibitor, partial curve, poor fit]

Question: With `Cc1cccc(N(C(=O)c2nsc(Cl)c2Cl)C(C(=O)NC2CCCC2)c2ccc(O)cc2)c1C` (stereo not drawn) as the compound, how does the Potency read?
Answer: inconclusive: 39.8 µM [inhibitor, single point]

Question: With `Cc1noc(C)c1S(=O)(=O)N(CC(=O)Nc1ccc(F)cc1F)c1ccc(C(C)C)cc1` as the compound, how does the Potency read?
Answer: inconclusive: 25.1 µM [inhibitor, partial curve, poor fit]

Question: With `C[C@H](CO)N1C[C@H](C)[C@H](CN(C)CC2CCCCC2)Oc2ccc(NS(=O)(=O)c3ccc(F)cc3)cc2CC1=O` as the compound, how does the Potency read?
Answer: inconclusive: 35.5 µM [inhibitor, partial curve, poor fit]

Question: Which Potency does the source give for `CCN(CC)CCNC(=O)c1ccc(NC(=O)C2CCN(c3ncnc4sc(C)c(C)c34)CC2)cc1` here?
Answer: inconclusive: 39.8 µM [inhibitor, single point]

Question: Which Potency does the source give for `COc1ccc(Nc2c3c(nc4ccc(C)cc24)CCC3)cc1` here?
Answer: inconclusive: 22.4 µM [inhibitor, partial curve, poor fit]

Question: With `COCCNc1nc(Nc2ccc(C(=O)OC)cc2)c2sccc2n1` as the compound, how does the Potency read?
Answer: inconclusive: 28.2 µM [inhibitor, partial curve, poor fit]

Question: For `COc1cccc(OC)c1C(=O)Oc1ccc2c(c1)O/C(=C\c1ccncc1)C2=O`, which Potency is on record?
Answer: inconclusive: 25.1 µM [inhibitor, single point]

Question: For `CC[C@H](CC#N)OC(=O)N[C@@H](C)c1cccc(NC(=O)Nc2ccc(-c3cnco3)c(OC)c2)c1`, which Potency is on record?
Answer: inconclusive: 48.5 µM [inhibitor, single point]

Question: Which Potency does the source give for `S=C(NCc1ccco1)N1CCN(c2ccc(Cl)cc2)CC1` here?
Answer: inconclusive: 39.8 µM [inhibitor, single point]

Question: With `C=C[C@@H]1c2cccc(C)c2N(S(=O)(=O)c2ccc(C)cc2)[C@H](c2ccc(OC(C)=O)cc2)C1(C#N)C#N` as the compound, how does the Potency read?
Answer: inconclusive: 39.8 µM [inhibitor, single point]

Question: With `N#CC(C#N)=C1C(=O)N(CCN2CCCCC2)c2ccccc21` as the compound, how does the Potency read?
Answer: inactive

Question: With `O=C(CSc1n[nH]c(-c2ccc(Br)cc2)n1)NC1CCCC1` as the compound, how does the Potency read?
Answer: inconclusive: 39.8 µM [inhibitor, single point]

Question: For `O=C(C[C@H]1C/C=C\CC[C@@H](Cc2ccc(F)cc2)C(=O)O[C@@H](c2ccccc2)CNC1=O)N[C@H](CO)Cc1ccccc1`, which Potency is on record?
Answer: inconclusive: 39.8 µM [inhibitor, single point]

Question: Which Potency does the source give for `COc1ccc(CCNC(=O)c2ccc(CS(=O)Cc3ccc(C)cc3)o2)cc1OC` (stereo not drawn) here?
Answer: inactive

Question: Which Potency does the source give for `C#CCN(C[C@@H]1[C@@H](OC(=O)Nc2cccs2)[C@@H](OC(=O)Nc2cccs2)Cn2c(=O)ccc(=O)n21)S(=O)(=O)c1ccc(C)cc1` here?
Answer: active: 3.55 µM

Question: With `c1ccc(CCNc2nc(-c3ccccn3)nc3ccccc23)cc1` as the compound, how does the Potency read?
Answer: inconclusive: 5.62 µM [inhibitor, full curve]

Question: With `Cc1ccc(Cc2c(-c3cccc(Cl)c3)nc3ccc(Br)cn23)cc1` as the compound, how does the Potency read?
Answer: inactive

Question: For `CCCNC(=O)c1ccc2c(c1)N=C(C)c1c(C)ccc(C)c1S2`, which Potency is on record?
Answer: inactive

Question: With `CC(C)C[C@@H](CN1CCC[C@H]1CN1C(=O)C(=O)NC[C@@H]1Cc1ccc(O)cc1)N1C[C@H](Cc2ccccc2)N(CC2CCCCCC2)C(=O)C1=O` as the compound, how does the Potency read?
Answer: inconclusive: 39.8 µM [inhibitor, partial curve, poor fit]

Question: Which Potency does the source give for `Cc1cccc(N2CCN(C(=O)c3ccc4nc(-c5ccco5)c(-c5ccco5)nc4c3)CC2C)c1` (stereo not drawn) here?
Answer: inconclusive: 22.4 µM [inhibitor, single point]

Question: Which Potency does the source give for `CCCCCC(CC(=O)NO)C(=O)NC(C(=O)N1CCCC1CO)C(C)C` (stereo not drawn) here?
Answer: inconclusive: 2.82 µM [inhibitor, full curve]

Question: Which Potency does the source give for `Cc1c(C(=O)Nc2ccc3c(c2)OCCO3)sc2nc(-c3ccccc3)cn12` here?
Answer: active: 31.6 µM

Question: With `O=C(N/N=C/c1cccs1)c1n[nH]c2c1CCCC2` as the compound, how does the Potency read?
Answer: active: 15 µM

Question: With `O=C(Nc1ccccc1F)c1nc(S(=O)(=O)Cc2ccccc2F)ncc1Cl` as the compound, how does the Potency read?
Answer: inconclusive: 28.2 µM [inhibitor, single point]

Question: Which Potency does the source give for `CC1(C(=O)Nc2cnc3ccccc3c2)CCN1Cc1ccc2ccccc2c1` (stereo not drawn) here?
Answer: inconclusive: 31.6 µM [inhibitor, partial curve, poor fit]

Question: For `Clc1cccc(-n2ncc3c(NC4CCCCC4)ncnc32)c1`, which Potency is on record?
Answer: inactive

Question: Which Potency does the source give for `CCOc1ccc2oc(C(=O)NCc3ccccc3CN3CCCC3)c(C)c2c1` here?
Answer: inconclusive: 39.8 µM [inhibitor, partial curve, poor fit]

Question: Which Potency does the source give for `Cc1cccc(CNc2ncnc3ccc(-c4ccc5c(c4)OCO5)cc23)c1` here?
Answer: inconclusive: 39.8 µM [inhibitor, single point]

Question: With `O=C(Nc1ccc2c(c1)CCCN2C(=O)c1cccs1)c1cccc(C(F)(F)F)c1` as the compound, how does the Potency read?
Answer: inconclusive: 39.8 µM [inhibitor, single point]

Question: For `CC1Cc2nc(SCC(=O)Nc3nc4ccccc4s3)n(C)c(=O)c2S1` (stereo not drawn), which Potency is on record?
Answer: inconclusive: 28.2 µM [inhibitor, single point]

Question: Which Potency does the source give for `O=C(N/N=C/c1cn(-c2ccccc2)nc1-c1cc2ccccc2o1)c1ccccc1Br` here?
Answer: inactive

Question: For `O=C(Nc1ccc(N2CCCC2)c(S(=O)(=O)Nc2cccc(C(F)(F)F)c2)c1)c1cccs1`, which Potency is on record?
Answer: inconclusive: 20 µM [inhibitor, single point]

Question: With `CCOC(=O)c1[nH]c2ccccc2c1NC(=O)c1ccccc1OCC` as the compound, how does the Potency read?
Answer: inconclusive: 39.8 µM [inhibitor, single point]

Question: With `CN(C)C(=O)C(OC(=O)c1ccc2c(c1)CCCC2)c1ccccc1` (stereo not drawn) as the compound, how does the Potency read?
Answer: inactive

Question: With `CC(C)(C)c1ccc(S(=O)(=O)N2CCC(c3nc4ccc(Cl)cc4[nH]3)CC2)cc1` as the compound, how does the Potency read?
Answer: inconclusive: 25.1 µM [inhibitor, single point]

Question: With `COC(=O)CC(NC(=O)c1ccc(C)cc1)c1ccccc1` (stereo not drawn) as the compound, how does the Potency read?
Answer: inactive

Question: With `COc1ccc(O)c(/C=N/NC(=S)NCCc2ccccc2)c1` as the compound, how does the Potency read?
Answer: inconclusive: 31.6 µM [inhibitor, single point]

Question: For `CCC(C)c1ccc(OCC(=O)Nc2cccc(-c3nc4ncccc4o3)c2)cc1` (stereo not drawn), which Potency is on record?
Answer: inconclusive: 39.8 µM [inhibitor, single point]

Question: For `CCOc1ccc(OCc2ccc(C(=O)N3CCCC(C)C3)cc2)cc1` (stereo not drawn), which Potency is on record?
Answer: inconclusive: 17.8 µM [inhibitor, single point]

Question: Which Potency does the source give for `CCc1nc2ccc(C(=O)N(C)Cc3ccco3)cn2c1N(CC)Cc1cccc(Br)c1` here?
Answer: inconclusive: 28.2 µM [inhibitor, single point]

Question: For `COc1ccc(OC)c2nc3c(C(=O)NCCN(C)C)cccc3nc12`, which Potency is on record?
Answer: inconclusive: 23.8 µM [inhibitor, partial curve, poor fit]

Question: Which Potency does the source give for `C=CC[C@@H](CC(=O)N(CCO)Cc1ccccc1)C(=O)N[C@@H](COC(=O)[C@@H](CC=C)Cc1ccc(F)cc1)Cc1c[nH]c2ccccc12` here?
Answer: inactive
